In the supplement of paper PMC6531468:
This is one part of the list. Values come from read counts of a selection and are noisy. Scores sum up all selected molecules that hold the word; the word was not tested alone.

Key:
Assay in all cases: 6-mer SELEX enrichment z-score vs GST control; IMP3 is the RNA-binding protein IGF2BP3; higher = more enriched by binding
IMP3 KH1-4 = conditions: construct: KH1-4 (164-579); SELEX round: R4
Procedure: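 SELEX-seq with GST-tagged IMP3 KH1-4 (Pro164-Lys579) and an N40 RNA pool, round 4. 6-mer z-score of sequence-tag enrichment normalised to the corresponding GST SELEX round; RNA k-mers written as DNA (T for U).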

IMP3 RRM1-2 = conditions: construct: RRM1-2 (1-163); SELEX round: R2
IMP3 RRM1-2, sequence (chain, as listed by the source): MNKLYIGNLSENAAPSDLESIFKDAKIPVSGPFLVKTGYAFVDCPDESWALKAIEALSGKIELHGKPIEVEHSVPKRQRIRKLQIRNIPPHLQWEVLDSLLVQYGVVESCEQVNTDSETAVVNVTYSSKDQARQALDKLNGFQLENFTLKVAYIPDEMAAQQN
Procedure: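 SELEX-seq with GST-tagged IMP3 RRM1-2 (Met1-Asn163) and an N40 RNA pool, round 2. 6-mer enrichment z-score normalised to GST SELEX. RNA written as DNA (T = U).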

IMP3 full-length = IMP3 full-length (UniProt O00425); conditions: construct: FL IMP3 (1-579); SELEX round: R4
UniProt O00425, sequence (O00425 whole entry): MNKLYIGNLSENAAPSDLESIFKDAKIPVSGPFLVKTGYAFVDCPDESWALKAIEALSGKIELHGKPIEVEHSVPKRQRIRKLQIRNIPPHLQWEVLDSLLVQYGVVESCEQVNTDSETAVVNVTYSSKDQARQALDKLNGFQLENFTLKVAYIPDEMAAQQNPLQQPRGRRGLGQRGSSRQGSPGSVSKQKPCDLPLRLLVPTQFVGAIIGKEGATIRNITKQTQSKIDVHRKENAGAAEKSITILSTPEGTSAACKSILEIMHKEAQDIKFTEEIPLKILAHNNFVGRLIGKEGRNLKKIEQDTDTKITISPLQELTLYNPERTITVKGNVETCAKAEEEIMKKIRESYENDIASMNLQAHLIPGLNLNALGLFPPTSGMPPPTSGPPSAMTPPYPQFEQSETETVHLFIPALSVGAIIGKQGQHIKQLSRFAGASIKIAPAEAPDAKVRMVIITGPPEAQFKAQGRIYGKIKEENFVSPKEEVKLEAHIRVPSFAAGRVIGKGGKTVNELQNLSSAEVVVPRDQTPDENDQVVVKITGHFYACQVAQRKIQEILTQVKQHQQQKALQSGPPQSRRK
Procedure: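 SELEX-seq with GST-tagged full-length IMP3 and an N40 RNA pool, round 4. Each 6-mer is scored as an enrichment z-score of sequence tags containing it, normalised to the matching GST SELEX round. RNA written as DNA (T = U).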

IMP3 KH1-2 = conditions: construct: KH1-2 (164-376); SELEX round: R4
IMP3 KH1-2, sequence (chain, as listed by the source): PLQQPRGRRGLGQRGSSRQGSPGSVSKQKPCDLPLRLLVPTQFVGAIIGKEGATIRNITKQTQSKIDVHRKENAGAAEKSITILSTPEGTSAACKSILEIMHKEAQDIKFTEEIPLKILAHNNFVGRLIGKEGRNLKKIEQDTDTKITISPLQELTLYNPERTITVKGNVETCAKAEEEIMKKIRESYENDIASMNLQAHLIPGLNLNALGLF
Procedure: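 SELEX-seq with GST-tagged IMP3 KH1-2 (Pro164-Phe376) and an N40 RNA pool, round 4 (stringent 300/600 mM KCl washes). 6-mer z-score of sequence-tag enrichment normalised to the corresponding GST SELEX round; RNA k-mers written as DNA (T for U).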

IMP3 KH3-4 = conditions: construct: KH3-4 (377-579); SELEX round: R4
IMP3 KH3-4, sequence (chain, as listed by the source): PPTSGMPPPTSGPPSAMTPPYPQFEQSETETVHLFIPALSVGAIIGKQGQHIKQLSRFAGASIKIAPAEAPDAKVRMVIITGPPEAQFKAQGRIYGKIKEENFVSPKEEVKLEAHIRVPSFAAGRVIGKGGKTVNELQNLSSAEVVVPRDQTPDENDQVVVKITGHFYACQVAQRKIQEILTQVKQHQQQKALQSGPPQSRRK
Procedure: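 SELEX-seq with GST-tagged IMP3 KH3-4 (Pro377-Lys579) and an N40 RNA pool, round 4. 6-mer z-score of sequence-tag enrichment normalised to the corresponding GST SELEX round; RNA k-mers written as DNA (T for U).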

IMP3 KH1-4, sequence (chain, as listed by the source): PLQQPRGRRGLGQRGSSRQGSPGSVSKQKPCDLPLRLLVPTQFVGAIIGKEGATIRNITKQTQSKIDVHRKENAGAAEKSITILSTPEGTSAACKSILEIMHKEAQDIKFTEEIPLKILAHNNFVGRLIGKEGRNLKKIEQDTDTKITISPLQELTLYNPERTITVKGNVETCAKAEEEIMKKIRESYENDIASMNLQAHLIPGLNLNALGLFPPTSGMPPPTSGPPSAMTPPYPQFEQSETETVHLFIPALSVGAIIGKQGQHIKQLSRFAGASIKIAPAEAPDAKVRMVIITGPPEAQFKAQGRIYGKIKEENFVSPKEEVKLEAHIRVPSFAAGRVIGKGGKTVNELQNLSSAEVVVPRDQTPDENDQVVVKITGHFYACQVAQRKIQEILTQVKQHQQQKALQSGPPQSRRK

| Sequence | 6-mer SELEX enrichment z-score (IMP3 KH1-4) | 6-mer SELEX enrichment z-score (IMP3 RRM1-2) | 6-mer SELEX enrichment z-score (IMP3 full-length) | 6-mer SELEX enrichment z-score (IMP3 KH1-2) | 6-mer SELEX enrichment z-score (IMP3 KH3-4) |
| --- | --- | --- | --- | --- | --- |
| CCAACG | -2.19 | -0.975 | -1.61 | -2.12 | -2.52 |
| TCGGGT | -0.342 | 0.424 | 0.219 | -0.172 | -0.006 |
| GGTTTT | 0.098 | 0.453 | 0.092 | 0.115 | 0.374 |
| AGAAAC | -0.293 | -1.16 | -1.03 | -0.165 | 0.221 |
| CACCAT | 1.45 | 1.3 | 1.62 | 1.39 | 0.534 |
| CTTTGA | -0.006 | -0.246 | -0.407 | -0.154 | 0.049 |
| TTCTGA | 0.315 | -0.033 | -0.013 | 0.402 | 0.321 |
| TAGTAC | -0.281 | 0.118 | -0.116 | -0.369 | -0.227 |
| CTTCAG | 0.129 | 0.772 | 0.446 | 0.141 | 0.002 |
| TTTAGA | 0.401 | -0.123 | -0.22 | 0.351 | 0.963 |
| TGACCG | -0.643 | -1.09 | -0.944 | -0.711 | -0.986 |
| GGGTCA | -0.019 | 0.196 | 0.507 | 0.166 | 0.204 |
| CGTACC | -1.59 | -0.235 | -0.633 | -1.49 | -1.77 |
| GACTAG | -0.222 | -0.362 | -0.342 | -0.256 | -0.159 |
| CATCTG | 0.177 | 0.55 | 0.932 | 0.101 | -0.231 |
| AATCAG | 0.412 | 1.33 | 1.15 | 0.283 | 0.434 |
| GGTAGG | 0.206 | 0.289 | 0.289 | 0.323 | 0.353 |
| CATTCT | 0.877 | 0.944 | 0.882 | 0.91 | 0.605 |
| CCTAAC | -1.23 | -0.638 | -1.48 | -1.16 | -1.58 |
| TACGAT | 0.503 | -0.386 | -0.203 | 0.42 | 0.498 |
| CAAGGC | 0.038 | 0.693 | 1.1 | -0.066 | -0.063 |
| CTTGAC | -1.12 | -0.311 | -0.896 | -1.13 | -1.14 |
| AAATTA | 1.08 | -0.945 | -0.574 | 1.13 | 2.51 |
| TCCTTG | -0.148 | 0.183 | -0.222 | -0.148 | -0.253 |
| TCCTAG | -0.077 | -0.058 | -0.238 | -0.139 | -0.133 |
| GCCTAT | 0.024 | -0.003 | -0.111 | 0.017 | 0.137 |
| GTCGAT | 0.057 | 0.146 | 0.148 | -0.051 | 0.143 |
| GCTTTA | 0.392 | 0.14 | 0.01 | 0.45 | 0.7 |
